Reference: the supplement of paper PMC12217912
This is one part of the list. The full chains were built here from the parent and the listed change. Values near 0.05 are background.

B1: TEV protease; numbered along this chain (parent)
chain: MGESLFKGPRDYNPISSSICHLTNESDGHTTSLYGIGFGPFIITNKHLFRRNNGTLVVQSLHGVFKVKDTTTLQQHLVDGRDMIIIRMPKDFPPFPQKLKFREPQREERICLVTTNFQTKSMSSMVSDTSCTFPSGDGIFWKHWIQTKDGQCGSPLVSTRDGFIVGIHSASNFTNTNNYFTSVPKNFMELLTNQEAQQWVSGWRLNADSVLWGGHKVFMVKPEEPFQPVKEATQL

Variants of: B1
Assay: raw area under fraction-flipped curve 0-4 h after induction (AUC4h, not background-subtracted), DNA-recorder readout of cleavage of the substrate (dimensionless); higher = more cleavage of the substrate by the protease variant
Settings: temperature: 34 °C; time window: 0-4 h after rhamnose induction
Description: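 In vivo DNA recorder in E. coli TOP10(DE3) ΔrhaA at 34 °C. Each TEVp single-site mutant (parent TEVp 0) is paired with a single-site variant of the 7-mer TEVs (canonical ENLYFQ|S). The substrate sits between flexible linkers in a Bxb1-sfGFP-TEVs-SsrA fusion, so cleavage stabilises Bxb1 and speeds flipping of a recombination array, read by NGS. The value is the raw area under the fraction-flipped curve over 0-4 h after rhamnose induction (AUC4h), with ≥20 reads per time point. It is not background-subtracted; inactive controls average about 0.047.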
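Also: Bxb1 expression induced with 0.2% (w/v) L-rhamnose at OD600 near 0.5, cultures sampled hourly, flipped fraction per protease–substrate barcode pair counted by paired-end Illumina sequencing.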

## MGESLFKGPRDYNPISSSICHLTNESDGFTTSLYGIGFGPFIITNKHLFRRNNGTLVVQSLHGVFKVKDTTTLQQHLVDGRDMIIIRMPKDFPPFPQKLKFREPQREERICLVTTNFQTKSMSSMVSDTSCTFPSGDGIFWKHWIQTKDGQCGSPLVSTRDGFIVGIHSASNFTNTNNYFTSVPKNFMELLTNQEAQQWVSGWRLNADSVLWGGHKVFMVKPEEPFQPVKEATQL [H29F]
  area with substrate ANLYFQS: 0.0714
  area with substrate INLYFQS: 0.0678
  area with substrate LNLYFQS: 0.0609
  area with substrate MNLYFQS: 0.0838
  area with substrate NNLYFQS: 0.0713
  area with substrate RNLYFQS: 0.0431
  area with substrate TNLYFQS: 0.0808
  area with substrate WNLYFQS: 0.0602
  area with substrate YNLYFQS: 0.0641

## MGESLFKGPRDYNPISSSICHLTNESDGHTTSLLGIGFGPFIITNKHLFRRNNGTLVVQSLHGVFKVKDTTTLQQHLVDGRDMIIIRMPKDFPPFPQKLKFREPQREERICLVTTNFQTKSMSSMVSDTSCTFPSGDGIFWKHWIQTKDGQCGSPLVSTRDGFIVGIHSASNFTNTNNYFTSVPKNFMELLTNQEAQQWVSGWRLNADSVLWGGHKVFMVKPEEPFQPVKEATQL [Y34L]
  area with substrate ANLYFQS: 0.0837
  area with substrate FNLYFQS: 0.0702
  area with substrate GNLYFQS: 0.0522
  area with substrate HNLYFQS: 0.0734
  area with substrate INLYFQS: 0.0591
  area with substrate LNLYFQS: 0.0581
  area with substrate PNLYFQS: 0.0676
  area with substrate SNLYFQS: 0.068
  area with substrate TNLYFQS: 0.0651
  area with substrate YNLYFQS: 0.0576

## MGESLFKGPRDYNPISSSICHLTNESDGHTTSLYEIGFGPFIITNKHLFRRNNGTLVVQSLHGVFKVKDTTTLQQHLVDGRDMIIIRMPKDFPPFPQKLKFREPQREERICLVTTNFQTKSMSSMVSDTSCTFPSGDGIFWKHWIQTKDGQCGSPLVSTRDGFIVGIHSASNFTNTNNYFTSVPKNFMELLTNQEAQQWVSGWRLNADSVLWGGHKVFMVKPEEPFQPVKEATQL [G35E]
  area with substrate ANLYFQS: 0.0432
  area with substrate HNLYFQS: 0.0656
  area with substrate LNLYFQS: 0.0362
  area with substrate PNLYFQS: 0.0452

## MGESLFKGPRDYNPISSSICHLTNESDGHTTSLYRIGFGPFIITNKHLFRRNNGTLVVQSLHGVFKVKDTTTLQQHLVDGRDMIIIRMPKDFPPFPQKLKFREPQREERICLVTTNFQTKSMSSMVSDTSCTFPSGDGIFWKHWIQTKDGQCGSPLVSTRDGFIVGIHSASNFTNTNNYFTSVPKNFMELLTNQEAQQWVSGWRLNADSVLWGGHKVFMVKPEEPFQPVKEATQL [G35R]
  area with substrate ANLYFQS: 0.0376
  area with substrate FNLYFQS: 0.0114
  area with substrate SNLYFQS: 0.0543

## MGESLFKGPRDYNPISSSICHLTNESDGHTTSLYKIGFGPFIITNKHLFRRNNGTLVVQSLHGVFKVKDTTTLQQHLVDGRDMIIIRMPKDFPPFPQKLKFREPQREERICLVTTNFQTKSMSSMVSDTSCTFPSGDGIFWKHWIQTKDGQCGSPLVSTRDGFIVGIHSASNFTNTNNYFTSVPKNFMELLTNQEAQQWVSGWRLNADSVLWGGHKVFMVKPEEPFQPVKEATQL [G35K]
  area with substrate ANLYFQS: 0.0499
  area with substrate DNLYFQS: 0.0341
  area with substrate PNLYFQS: 0.0259
  area with substrate SNLYFQS: 0.0432

## MGESLFKGPRDYNPISSSICHLTNISDGHTTSLYGIGFGPFIITNKHLFRRNNGTLVVQSLHGVFKVKDTTTLQQHLVDGRDMIIIRMPKDFPPFPQKLKFREPQREERICLVTTNFQTKSMSSMVSDTSCTFPSGDGIFWKHWIQTKDGQCGSPLVSTRDGFIVGIHSASNFTNTNNYFTSVPKNFMELLTNQEAQQWVSGWRLNADSVLWGGHKVFMVKPEEPFQPVKEATQL [E25I]
  area with substrate ANLYFQS: 0.0612
  area with substrate FNLYFQS: 0.075
  area with substrate INLYFQS: 0.0597
  area with substrate KNLYFQS: 0.0514
  area with substrate LNLYFQS: 0.0581
  area with substrate MNLYFQS: 0.0766
  area with substrate PNLYFQS: 0.0526
  area with substrate QNLYFQS: 0.0586
  area with substrate SNLYFQS: 0.0585
  area with substrate TNLYFQS: 0.0614
  area with substrate WNLYFQS: 0.0552
  area with substrate YNLYFQS: 0.0578

## MGESLFKGPRDYNPISSSICHLTNESDGHTQSLYGIGFGPFIITNKHLFRRNNGTLVVQSLHGVFKVKDTTTLQQHLVDGRDMIIIRMPKDFPPFPQKLKFREPQREERICLVTTNFQTKSMSSMVSDTSCTFPSGDGIFWKHWIQTKDGQCGSPLVSTRDGFIVGIHSASNFTNTNNYFTSVPKNFMELLTNQEAQQWVSGWRLNADSVLWGGHKVFMVKPEEPFQPVKEATQL [T31Q]
  area with substrate ANLYFQS: 0.0587
  area with substrate FNLYFQS: 0.062
  area with substrate GNLYFQS: 0.065
  area with substrate HNLYFQS: 0.0476
  area with substrate KNLYFQS: 0.0521
  area with substrate LNLYFQS: 0.0567
  area with substrate MNLYFQS: 0.067
  area with substrate RNLYFQS: 0.0724
  area with substrate SNLYFQS: 0.0673
  area with substrate TNLYFQS: 0.0613
  area with substrate WNLYFQS: 0.0588
  area with substrate YNLYFQS: 0.0517

## MGNSLFKGPRDYNPISSSICHLTNESDGHTTSLYGIGFGPFIITNKHLFRRNNGTLVVQSLHGVFKVKDTTTLQQHLVDGRDMIIIRMPKDFPPFPQKLKFREPQREERICLVTTNFQTKSMSSMVSDTSCTFPSGDGIFWKHWIQTKDGQCGSPLVSTRDGFIVGIHSASNFTNTNNYFTSVPKNFMELLTNQEAQQWVSGWRLNADSVLWGGHKVFMVKPEEPFQPVKEATQL [E3N]
  area with substrate ANLYFQS: 0.0636
  area with substrate INLYFQS: 0.135
  area with substrate KNLYFQS: 0.0906
  area with substrate NNLYFQS: 0.072
  area with substrate TNLYFQS: 0.0704
  area with substrate WNLYFQS: 0.04

## MGYSLFKGPRDYNPISSSICHLTNESDGHTTSLYGIGFGPFIITNKHLFRRNNGTLVVQSLHGVFKVKDTTTLQQHLVDGRDMIIIRMPKDFPPFPQKLKFREPQREERICLVTTNFQTKSMSSMVSDTSCTFPSGDGIFWKHWIQTKDGQCGSPLVSTRDGFIVGIHSASNFTNTNNYFTSVPKNFMELLTNQEAQQWVSGWRLNADSVLWGGHKVFMVKPEEPFQPVKEATQL [E3Y]
  area with substrate ANLYFQS: 0.0489
  area with substrate GNLYFQS: 0.0584
  area with substrate HNLYFQS: 0.0782
  area with substrate INLYFQS: 0.0769
  area with substrate LNLYFQS: 0.0878
  area with substrate NNLYFQS: 0.0766
  area with substrate PNLYFQS: 0.0504
  area with substrate SNLYFQS: 0.0666
  area with substrate VNLYFQS: 0.0981
  area with substrate WNLYFQS: 0.072

## MGESLFKGQRDYNPISSSICHLTNESDGHTTSLYGIGFGPFIITNKHLFRRNNGTLVVQSLHGVFKVKDTTTLQQHLVDGRDMIIIRMPKDFPPFPQKLKFREPQREERICLVTTNFQTKSMSSMVSDTSCTFPSGDGIFWKHWIQTKDGQCGSPLVSTRDGFIVGIHSASNFTNTNNYFTSVPKNFMELLTNQEAQQWVSGWRLNADSVLWGGHKVFMVKPEEPFQPVKEATQL [P9Q]
  area with substrate ANLYFQS: 0.0636
  area with substrate GNLYFQS: 0.0975
  area with substrate HNLYFQS: 0.0644
  area with substrate INLYFQS: 0.0791
  area with substrate KNLYFQS: 0.0687
  area with substrate LNLYFQS: 0.0808
  area with substrate PNLYFQS: 0.0795
  area with substrate TNLYFQS: 0.0669
  area with substrate VNLYFQS: 0.0709
  area with substrate WNLYFQS: 0.0581
  area with substrate YNLYFQS: 0.0594

## MGESLFKGPRDVNPISSSICHLTNESDGHTTSLYGIGFGPFIITNKHLFRRNNGTLVVQSLHGVFKVKDTTTLQQHLVDGRDMIIIRMPKDFPPFPQKLKFREPQREERICLVTTNFQTKSMSSMVSDTSCTFPSGDGIFWKHWIQTKDGQCGSPLVSTRDGFIVGIHSASNFTNTNNYFTSVPKNFMELLTNQEAQQWVSGWRLNADSVLWGGHKVFMVKPEEPFQPVKEATQL [Y12V]
  area with substrate ANLYFQS: 0.0713
  area with substrate FNLYFQS: 0.0939
  area with substrate GNLYFQS: 0.0527
  area with substrate HNLYFQS: 0.055
  area with substrate KNLYFQS: 0.0704
  area with substrate LNLYFQS: 0.0447
  area with substrate NNLYFQS: 0.0511
  area with substrate PNLYFQS: 0.0748
  area with substrate SNLYFQS: 0.0662
  area with substrate TNLYFQS: 0.0644
  area with substrate VNLYFQS: 0.0669
  area with substrate WNLYFQS: 0.0608
